In PubChem BioAssay AID1963576 (National Center for Advancing Translational Sciences (NCATS), 2024):
About 60 (0.1%) of roughly 46,000 compounds were called active. Another 3% or so got no clear call; they are omitted. Calls follow the shape of the dose curve; as a rule, active = well fitted inhibition curve with a large enough effect; inconclusive = small, poorly fitted or top-dose-only effect; inactive = no such curve, though single readings can be large or run the other way. The list shows a part of the results.

Experiment: Primary qHTS assay for Inhibitors of ovarian cancer metastasis using an organotypic tumor microenvironment (TME) model. Also: nearly all actives have a fitted effect of over 65% in size.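 As to activity change, negative = inhibition: plate controls were DMSO wells for no effect and tomatine positive control wells for full effect.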
Conditions: SKOV3ip1-GFP adhesion/invasion on 3D omental model, fluorescence; series mostly up to 45.8 µM; activity change, negative = inhibition: at the top concentration
How it was run: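 Primary human omental fibroblast/mesothelial 3D culture pre-formed 48 h. SKOV3ip1-GFP cells added with compounds (0.36-46 umol/L), incubated 2 h RT/16 h 37 C, fixed; GFP cells quantified at 488/509 nm.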

Activity change, negative = inhibition, inactive:
COc1cc(N2CCC(N3CCN(C)CC3)CC2)ccc1Nc1ncc(Cl)c(Nc2ccccc2S(=O)(=O)C(C)C)n1 -6.59%
COc1ccc(OC)c(CNC(=O)C2CCN(S(=O)(=O)c3ccc4[nH]c(=O)oc4c3)CC2)c1 4.61%
O=C(Nc1ccc(C(=O)OCc2cc(=O)n3ccsc3n2)cc1)c1cccc(F)c1 -1.27%
Cc1cc(C)cc(NC(=O)N2CCC(N3CCN(Cc4ccccc4)C(=O)C3=O)CC2)c1 2.37%
CC(C)Oc1ccc(CNC(=O)c2cccc(NC(=O)c3nsc4ccccc34)c2)cc1 -5.39%
COc1ccc(N2Cc3cccc(C(=O)Nc4cccc(F)c4)c3C2=O)cc1 3.34%
Cn1c(C(=O)N2CCC(C(=O)N3CCN(c4ccccc4)CC3)CC2)cc2sccc21 -6.48%
Cc1nnc(N2CCN(c3cccc(C(F)(F)F)c3)CC2)c2c1nnn2Cc1ccccc1 0.713%
Cc1ccc(CNC(=O)c2c[nH]n3c(=O)c(Cc4ccc(F)cc4Cl)c(C)nc23)cc1 7.3%
CN(C)c1ccc(C(=O)Nc2ccc(-c3nc4ccccc4o3)cc2)cc1 -0.113%
Cc1ccc(-c2cc(NC(=O)C(C)Oc3ccccc3F)on2)cc1 (stereo not given) -3.44%
Cc1cc(NC(=O)C2CCCN(S(=O)(=O)c3cn(C)cn3)C2)ccc1Br (stereo not given) 25.6%
Cc1noc2ncnc(NCc3ccc(Cl)cc3)c12 -25.7%
COc1cc(OC)c(C=CS(=O)(=O)Cc2ccc(OC)c(NCC(=O)O)c2)c(OC)c1 24.3%
CC(C)c1ccc(C2=NC(c3ccncc3)=Nc3ccc(F)cc3N2)cc1 1.91%
Cc1ccc(NC(=O)c2ccc(N(Cc3ccccc3)S(C)(=O)=O)cc2)cc1 -0.306%
C[C@@H](O)[C@H]1C(=O)N2C(C(=O)OCOC(=O)C(C)(C)C)=C(SC3CN(C4=NCCS4)C3)[C@H](C)[C@H]12 -9.47%
CC(=O)O[C@]1(C(C)=O)CC[C@H]2[C@@H]3C=C(Cl)C4=CC(=O)[C@@H]5C[C@H]5[C@]4(C)[C@@H]3CC[C@@]21C -21.4%
CCOC(=O)c1ccc(N2C(=O)c3n[nH]c(-c4cccs4)c3C2c2ccc(OC)cc2OC)cc1 (stereo not given) 32.6%
Cc1ccc(C(=O)c2oc3ccccc3c2NC(=O)C(C)Oc2ccccc2Cl)cc1 (stereo not given) 7.14%
CC(C)c1ccc2oc(-c3ccc(Cl)c(NC(=O)Cc4ccccc4)c3)nc2c1 3.08%
CCC1CCc2c(sc(NC(=O)C3c4ccccc4Oc4ccccc43)c2C(=O)OC)C1 (stereo not given) -0.662%
COc1ccc(OC)c(CCNC(=O)c2nn(C)c3c2CSc2ccccc2-3)c1 13%
CCOc1ccc(Cn2c(CNS(=O)(=O)c3ccc(CC)cc3)nc3cccnc32)cc1 8.11%
CCCn1cc(S(=O)(=O)c2ccc(CC)cc2)c(=O)c2cc(F)c(N3CCN(C)CC3)cc21 8.91%
COc1ccc(NC(=O)c2c(NCc3cccs3)sc3c2CCCCC3)c(OC)c1 19.7%
O=C(Cn1cc(SCc2ccccc2F)c2ccccc21)N1CCCC1 -4.78%
COc1ccc2c(c1)CC(C(=O)Nc1ccc(OC)cc1OC)CO2 (stereo not given) 18.9%
CCCOc1ccc2nc(NC(=O)OC)[nH]c2c1 9.28%
O=S(=O)(c1ccc(OC(F)(F)F)cc1)N1CCC(c2nc3ccccc3s2)CC1 -3.03%
CCOc1ccc(OCC)c(Nc2nc3ccc(C(=O)c4ccccc4)cc3n3cnnc23)c1 -0.608%
Cn1c(=O)c2cc(C(=O)Nc3cccc(C#N)c3)sc2c2ccccc21 1.6%
CCC(=O)Nc1ccccc1-c1nc2ccccc2n(CC(=O)Nc2ccc(C)c(C)c2)c1=O 2.4%
COc1ccc(Cl)cc1NC(=O)c1sc2nc(-c3ccc(OC)c(OC)c3)ccc2c1N 6.6%
COc1ccc(CCNC(=O)CSCc2nc(-c3cccc(C)c3)oc2C)cc1OC 5.36%
O=C(NCc1ccccc1)c1ccc2c(c1)N(Cc1ccc(F)cc1)CCS2 0.959%
O=C(NC1CCCC1)c1ccc(CSc2nc3cccnc3n2Cc2ccccc2)cc1 4.39%
COC(=O)c1ccc(NC(=O)NC(C)c2c(-n3cccc3)sc(C)c2C)cc1 (stereo not given) -18.4%
CCCNC(=O)C1CCC(Cn2c(=O)c3sccc3n(CC(=O)N3CCCC3)c2=O)CC1 (stereo not given) -2.53%
O=C(COc1ccc(Cl)cc1)Nc1ccc(-c2nc3cc(Cl)ccc3o2)c(O)c1 1.6%
Cc1c(C(=O)Nc2cccc(C#N)c2)sc2nc3n(c(=O)c12)CCCCC3 -5.56%
CCc1ccc(S(=O)(=O)c2nnn3c2nc(N2CCC(C(N)=O)CC2)c2cc(Cl)ccc23)cc1 0.0792%
CCCNC(=O)CN1C(=O)c2c(c3ccccc3n2C)C1c1ccc(OC)cc1 (stereo not given) -8.01%
COc1ccc(CNC(=O)c2cc3oc4ccccc4c3n2C)cc1OC 10.5%
Cc1cccc(N(C)c2nc3ccc(C)cc3n3cnnc23)c1 11.8%
CCCCOc1ccccc1C(=O)Nc1nonc1-c1ccccc1 1.63%
CC(C)CC(=O)NCC1(N(C)C)CCCCC1 -10.3%
COc1ccc(CNC(=O)C(C)N2Cc3ccccc3C2=O)cc1 (stereo not given) 2.58%
CCn1ccc2cc(S(=O)(=O)N3CCCN(C(=O)Nc4ccc(C)c(F)c4)CC3)ccc21 -1.6%
CC(C)(C)NC(=O)Nc1cccc(Nc2ncc(F)c(NC(C)(C)CO)n2)c1 -2.68%
CCOc1ccc(NC(=O)c2cc3c(s2)-c2ccccc2OC3)cc1 -4.96%
Cc1cccc(NC(=O)C(Cc2ccccc2)n2cccc2)c1C (stereo not given) -0.933%
COc1cc(OC)c(NC(=O)N2CCc3c(sc4c3CCCC4)C2c2ccccc2)cc1Cl (stereo not given) 1.6%
O=C(Nc1nnc(S(=O)(=O)N2CCCCCC2)s1)c1ccccc1Cl 4.71%
Cc1ccc(CNC(=O)CCCN2C(=O)c3cccnc3Oc3ccc(Cl)cc32)cc1 2.63%
FC(F)(F)c1cccc(-c2nnn3c2nc(NC2CCCCC2)c2ccccc23)c1 10.9%
COc1ccccc1CCNC(=O)Cc1c(C)c2c(cc(C)c3c(C)c(C)oc32)oc1=O 8.65%
CCC(C)NC(=O)C1CCN(C(=O)c2ccc(-n3ccc4ccccc43)s2)CC1 (stereo not given) -2.05%
CCOC(=O)c1ccc(NC(=O)CSc2nccn2-c2ccc(OCC)cc2)cc1 -3.38%
COc1ccccc1N1CCN(c2ccc(-c3nc(-c4ccccc4C)no3)cc2[N+](=O)[O-])CC1 0.205%
CCOc1ccc(CCNC(=O)c2cc(=O)[nH]c3ccc(S(=O)(=O)N4CCCCC4)cc23)cc1OCC -5.73%
COc1ccc(NC(=O)C(C)n2nnc3sc(-c4ccccc4)cc3c2=O)cc1Cl (stereo not given) -19.1%
COc1cc([N+](=O)[O-])ccc1NC(=O)N1CCN(c2cc(-c3noc(C)n3)ccc2C)CC1 -4.66%
S=P(N1CC1)(N1CC1)N1CC1 -6.08%
O=C(Cc1ccc(F)cc1)NCc1nc2cccnc2n1Cc1ccc(F)cc1 19.3%
FC(F)(F)c1cccc(N2CCN(Cc3nnc(-c4ccc5c(c4)OCO5)o3)CC2)c1 -11.1%
COc1cccc(-c2nc(SCC(=O)NCC3CCCO3)c(-c3ccc(F)cc3)[nH]2)c1 (stereo not given) -2.86%
CCOC(=O)c1cccc(NC(=O)N2CC(CC)Sc3ccccc32)c1 (stereo not given) -1.93%
CCCc1cc(=O)oc2cc(C)c3c(-c4cccc(OC)c4)coc3c12 -5.46%
NS(=O)(=O)c1ccc(CCNC(=O)c2ccc3nc(Cc4ccccc4)oc3c2)cc1 -3.8%
CC1CCCN(Cc2nc3c(c(=O)n(C)c(=O)n3C)n2Cc2ccc(Cl)cc2Cl)C1 (stereo not given) 10.6%

outcome, inactive:
COc1ccc(N2CCN(c3oc(/C=C/c4ccccc4OC)nc3C#N)CC2)cc1
COc1ccc(NC(=O)C(=O)NCc2ccco2)c(OC)c1
CCOc1ccc(CC(=O)Nc2c(C(=O)c3ccc(F)cc3)oc3ccc(Cl)cc23)cc1OCC
O=C(Nc1nc2c(s1)CCCC2)c1ccccc1F
CCOC(=O)N1CCC(NC(=O)c2ccc3c(c2)N(Cc2ccc(Cl)cc2)C(=O)c2ccccc2S3(=O)=O)CC1
CNC(=O)c1ccc2nc(Cc3ccccc3)oc2c1
CCOC(=O)c1c(S(=O)(=O)N2CCN(c3cccc(C(F)(F)F)c3)CC2)c(C)n(C)c1C
O=C(Nc1ccc(Br)cc1F)c1cc2nc(-c3ccco3)cc(C(F)(F)Cl)n2n1
Cc1cc(Br)ccc1NC(=O)CCNS(=O)(=O)c1cccc2nonc12
COc1ccc(C2=NN(CC(=O)NCCc3ccccc3)C(=O)CC2)cc1
CCc1ccc(NC(=O)C2CCN(S(=O)(=O)c3c(C)noc3C)CC2)cc1
CCc1cccc(C)c1NC(=O)CN1C(=O)c2ccccc2Sc2ncccc21
COC(=O)c1sc2cccc(F)c2c1S(=O)(=O)Nc1cc(C)c(Cl)cc1OC
CCCc1ccc(OCC(=O)Nc2sc3c(c2C(=O)OC)CCCCC3)cc1
Cc1nc(-c2ccccc2)sc1CCNC(=O)C(=O)Nc1ccc2c(c1)OCCO2
Cc1cccc(N2CCN(C(=O)Cn3cnc4sc(C)c(S(=O)(=O)N5CCN(c6ncccn6)CC5)c4c3=O)CC2C)c1 (stereo not given)
COc1ccccc1Cc1nc2ccccc2nc1SCC(=O)N1CCc2ccccc21
Cc1cccc(-c2nc(CSCC(=O)N3CCN(c4ccccc4)CC3)c(C)o2)c1
COc1cccc(NC(=O)C(=O)NCCc2csc(-c3ccc(C(F)(F)F)cc3)n2)c1
CCOc1ccccc1CNC(=O)C1CCN(S(=O)(=O)c2c(C)noc2/C=C/c2ccc(C)cc2)CC1
CCOC(=O)c1cccc(NC(=O)N2CCC(CN3CCc4ccccc4C3)CC2)c1
Cc1ccccc1OCC(=O)Nc1ccc(OCc2cc(=O)n3ccsc3n2)cc1
CC(C)(C)C1CCc2c(sc(NC(=O)CCC(=O)O)c2C(=O)Nc2ccccc2C(F)(F)F)C1 (stereo not given)
Cc1ccccc1C(=O)Nc1ccc2nc(Nc3cccc(C(F)(F)F)c3)cc(C)c2c1
